From a compilation of properties of binary mixtures (doi:10.1007/s10953-012-9891-7)
Some of these densities may be calculated back from excess volumes.

Experiment: xn = mol fraction of the nth substance listed
Conditions: 101 kPa

CCCCCCCCCCCCCC[P+](CCCCCC)(CCCCCC)CCCCCC.[Br-] + CN(C)C=O
mass density [kg/m3]
Conditions	x2 = 0.1305	x2 = 0.2663	x2 = 0.4341	x2 = 0.525	x2 = 0.6708	x2 = 0.7748	x2 = 0.847	x2 = 0.9068	x2 = 0.9209	x2 = 0.9626
293.15 K	961.2	961.1	960.9	960.6	960	–	957.9	955.8	955.1	952.3
298.15 K	958.1	958	–	957.3	956.5	955.4	–	951.7	950.9	947.9
303.15 K	954.9	954.7	954.3	953.9	953	951.7	950.2	947.6	946.8	943.5
308.15 K	951.8	–	951	–	949.6	–	946.4	943.6	942.7	939.1
313.15 K	948.6	–	947.7	947.2	946.1	944.5	942.6	–	–	934.6
